{
  "source": "the supplement of paper PMC8728848",
  "binders": {"B1": {"name": "PX9896A-bth-573-26-573 (Bacteroides thetaiotaomicron) (protein)", "chain": "ETNNLKTKEDMYKYFGTSKSMLTHVYSYMPQGYQLFATSGGIFTEDRYSMRDCASDDGEFGAYADNIQNTNNGNWSPIKTYDDSWTLYRGIRAANSFIAEIAQVDFTRYEHDGQYTNWMKQLKYFPYEARVLRAHYFFELARRYGDIAMPLEVLTEEEANTIGKTPFSEVISFIVSECDDAANNLPDSYVNEPGAEIGRVTKGFAMAVKSKALLYAASKLHNPSMDTELWKKSAKAAIDIINTGLYSLDPQESANNLDSKEVVLMRINGDDSDFEMFNLPLRMTAGTRTSSLIPYSNYPSQNLVDAFETVNGYKVTLENTGWVCEDPAFDPQSPYENRDKRFYRAILANGMSFKDYTIETFKGGADDGIVSQGGSPTGYFLRKYIQEATSFEPGKEAVSKHHWVIYRYAETLLTYAESMVNAFNDVNYTDETYKYSALWAINEVRKNADMPLIPSMGKDEFMERLYNEWRVEFAFEDHRFWDVRRWKIADTTQRELYGVKIEKQADGTFNFYKNLYETRNWRDCMYLYPIPQSELYKNTNLNPQNTGW"}},
  "test_in_all_cases": "glycan array binding signal (z-score within array); higher = stronger binding",
  "conditions_in_all_cases": "glycan notation: IUPAC condensed, linker removed",
  "key": {"[1]": {"target": "Neu5Ac(a2-3)Gal(b1-4)GlcNAc(b1-6)GalNAc", "procedure,_shortened": "(§1)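 Glycan array binding is given as a within-array Z-score, which can be read as non-binding when negative. The arrays, 3228 of them, came from the Consortium for Functional Glycomics database and were retained only where the protein sequence was available. Z-scores were averaged across arrays of the same protein sequence at different concentrations or buffers and across linkers.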"}, "[2]": {"target": "Neu5Ac(a2-3)Gal(b1-4)GlcNAc(b1-6)[Gal(b1-3)]GalNAc", "procedure,_shortened": "as §1"}, "[3]": {"target": "Neu5Ac(a2-3)Gal(b1-4)GlcNAc(b1-6)[Neu5Ac(a2-3)Gal(b1-3)]GalNAc", "procedure,_shortened": "as §1"}, "[4]": {"target": "Neu5Ac(a2-3)Gal(b1-4)GlcNAc6S", "procedure,_shortened": "as §1"}, "[5]": {"target": "Neu5Ac(a2-3)Gal(b1-4)[Fuc(a1-3)]GlcNAc", "procedure,_shortened": "as §1"}, "[6]": {"target": "Neu5Ac(a2-3)Gal(b1-4)[Fuc(a1-3)]GlcNAc(b1-2)Man", "procedure,_shortened": "as §1"}, "[7]": {"target": "Neu5Ac(a2-3)Gal(b1-4)[Fuc(a1-3)]GlcNAc(b1-3)Gal", "procedure,_shortened": "as §1"}, "[8]": {"target": "Neu5Ac(a2-3)Gal(b1-4)[Fuc(a1-3)]GlcNAc(b1-3)Gal(b1-4)GlcNAc", "procedure,_shortened": "as §1"}, "[9]": {"target": "Neu5Ac(a2-3)Gal(b1-4)[Fuc(a1-3)]GlcNAc(b1-3)Gal(b1-4)[Fuc(a1-3)]GlcNAc(b1-3)Gal(b1-4)[Fuc(a1-3)]GlcNAc", "procedure,_shortened": "as §1"}, "[10]": {"target": "Neu5Ac(a2-3)Gal(b1-4)[Fuc(a1-3)]GlcNAc(b1-3)GalNAc", "procedure,_shortened": "as §1"}, "[11]": {"target": "Neu5Ac(a2-3)Gal(b1-4)[Fuc(a1-3)]GlcNAc(b1-6)[Gal(b1-3)]GalNAc", "procedure,_shortened": "as §1"}, "[12]": {"target": "Neu5Ac(a2-3)Gal(b1-4)[Fuc(a1-3)]GlcNAc(b1-6)[Neu5Ac(a2-3)Gal(b1-3)]GalNAc", "procedure,_shortened": "as §1"}, "[13]": {"target": "Neu5Ac(a2-3)Gal(b1-4)[Fuc(a1-3)]GlcNAc6S", "procedure,_shortened": "as §1"}, "[14]": {"target": "Neu5Ac(a2-3)Gal6S(b1-4)GlcNAc", "procedure,_shortened": "as §1"}, "[15]": {"target": "Neu5Ac(a2-3)Gal6S(b1-4)[Fuc(a1-3)]GlcNAc", "procedure,_shortened": "as §1"}, "[16]": {"target": "Neu5Ac(a2-3)GalNAc", "procedure,_shortened": "as §1"}, "[17]": {"target": "Neu5Ac(a2-3)GalNAc(b1-4)GlcNAc", "procedure,_shortened": "as §1"}, "[18]": {"target": "Neu5Ac(a2-3)[GalNAc(b1-4)]Gal(b1-4)Glc", "procedure,_shortened": "as §1"}, "[19]": {"target": "Neu5Ac(a2-3)[GalNAc(b1-4)]Gal(b1-4)GlcNAc", "procedure,_shortened": "as §1"}, "[20]": {"target": "Neu5Ac(a2-3)[GalNAc(b1-4)]Gal(b1-4)GlcNAc(b1-3)GalNAc", "procedure,_shortened": "as §1"}, "[21]": {"target": "Neu5Ac(a2-3)[Neu5Ac(a2-6)]GalNAc", "procedure,_shortened": "as §1"}, "[22]": {"target": "Neu5Ac(a2-6)Gal", "procedure,_shortened": "as §1"}, "[23]": {"target": "Neu5Ac(a2-6)Gal(b1-3)GlcNAc(b1-3)[Gal(b1-4)GlcNAc(b1-6)]Gal(b1-4)Glc", "procedure,_shortened": "as §1"}, "[24]": {"target": "Neu5Ac(a2-6)Gal(b1-4)Glc", "procedure,_shortened": "as §1"}, "[25]": {"target": "Neu5Ac(a2-6)Gal(b1-4)GlcNAc", "procedure,_shortened": "as §1"}, "[26]": {"target": "Neu5Ac(a2-6)Gal(b1-4)GlcNAc(b1-2)Man", "procedure,_shortened": "as §1"}, "[27]": {"target": "Neu5Ac(a2-6)Gal(b1-4)GlcNAc(b1-2)Man(a1-3)Man(b1-4)GlcNAc(b1-4)GlcNAc", "procedure,_shortened": "as §1"}, "[28]": {"target": "Neu5Ac(a2-6)Gal(b1-4)GlcNAc(b1-2)Man(a1-3)[Gal(b1-4)GlcNAc(b1-2)Man(a1-6)]Man(b1-4)GlcNAc(b1-4)GlcNAc", "procedure,_shortened": "as §1"}, "[29]": {"target": "Neu5Ac(a2-6)Gal(b1-4)GlcNAc(b1-2)Man(a1-3)[GlcNAc(b1-2)Man(a1-6)]Man(b1-4)GlcNAc(b1-4)GlcNAc", "procedure,_shortened": "as §1"}, "[30]": {"target": "Neu5Ac(a2-6)Gal(b1-4)GlcNAc(b1-2)Man(a1-3)[GlcNAc(b1-4)][Neu5Ac(a2-6)Gal(b1-4)GlcNAc(b1-2)Man(a1-6)]Man(b1-4)GlcNAc(b1-4)GlcNAc", "procedure,_shortened": "as §1"}},
  "note": "The list shows a part of the results.",
  "data": [
    {"binder": "B1", "values": [
      {"measurement": "glycan array binding signal (z-score)", "setting": "[1]", "result": 0.154},
      {"measurement": "glycan array binding signal (z-score)", "setting": "[2]", "result": -0.254},
      {"measurement": "glycan array binding signal (z-score)", "setting": "[3]", "result": 0.197},
      {"measurement": "glycan array binding signal (z-score)", "setting": "[4]", "result": 0.689},
      {"measurement": "glycan array binding signal (z-score)", "setting": "[5]", "result": -0.523},
      {"measurement": "glycan array binding signal (z-score)", "setting": "[6]", "result": -0.204},
      {"measurement": "glycan array binding signal (z-score)", "setting": "[7]", "result": -0.039},
      {"measurement": "glycan array binding signal (z-score)", "setting": "[8]", "result": 0.271},
      {"measurement": "glycan array binding signal (z-score)", "setting": "[9]", "result": -0.176},
      {"measurement": "glycan array binding signal (z-score)", "setting": "[10]", "result": 4.79},
      {"measurement": "glycan array binding signal (z-score)", "setting": "[11]", "result": 0.074},
      {"measurement": "glycan array binding signal (z-score)", "setting": "[12]", "result": -0.68},
      {"measurement": "glycan array binding signal (z-score)", "setting": "[13]", "result": -0.425},
      {"measurement": "glycan array binding signal (z-score)", "setting": "[14]", "result": -0.53},
      {"measurement": "glycan array binding signal (z-score)", "setting": "[15]", "result": -0.756},
      {"measurement": "glycan array binding signal (z-score)", "setting": "[16]", "result": -0.229},
      {"measurement": "glycan array binding signal (z-score)", "setting": "[17]", "result": -0.491},
      {"measurement": "glycan array binding signal (z-score)", "setting": "[18]", "result": -0.608},
      {"measurement": "glycan array binding signal (z-score)", "setting": "[19]", "result": -0.529},
      {"measurement": "glycan array binding signal (z-score)", "setting": "[20]", "result": -0.496},
      {"measurement": "glycan array binding signal (z-score)", "setting": "[21]", "result": -0.228},
      {"measurement": "glycan array binding signal (z-score)", "setting": "[22]", "result": -0.476},
      {"measurement": "glycan array binding signal (z-score)", "setting": "[23]", "result": -0.325},
      {"measurement": "glycan array binding signal (z-score)", "setting": "[24]", "result": -0.396},
      {"measurement": "glycan array binding signal (z-score)", "setting": "[25]", "result": -0.425},
      {"measurement": "glycan array binding signal (z-score)", "setting": "[26]", "result": -0.386},
      {"measurement": "glycan array binding signal (z-score)", "setting": "[27]", "result": -0.091},
      {"measurement": "glycan array binding signal (z-score)", "setting": "[28]", "result": -0.161},
      {"measurement": "glycan array binding signal (z-score)", "setting": "[29]", "result": -0.072},
      {"measurement": "glycan array binding signal (z-score)", "setting": "[30]", "result": -0.292}
    ]}
  ]
}
